In PubChem BioAssay AID1963576 (National Center for Advancing Translational Sciences (NCATS), 2024):
In all, about 46,000 compounds went through this assay and about 60 (0.1%) were called active. Not shown: some 3% with an inconclusive outcome. Calls follow the shape of the dose curve; as a rule, active = well fitted inhibition curve with a large enough effect; inconclusive = small, poorly fitted or top-dose-only effect; inactive = no such curve, though single readings can be large or run the other way. The list shows a part of the results.

Experiment: Primary qHTS assay for Inhibitors of ovarian cancer metastasis using an organotypic tumor microenvironment (TME) model. Also: nearly all actives have a fitted effect of over 65% in size.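 As to activity change, negative = inhibition: plate controls were DMSO wells for no effect and tomatine positive control wells for full effect.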
Conditions: SKOV3ip1-GFP adhesion/invasion on 3D omental model, fluorescence; series mostly up to 45.8 µM; activity change, negative = inhibition: at the top concentration
Outline: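 qHTS, 4-pt dose (0.36-46 umol/L); SKOV3ip1-GFP, 1,200 cells/well, no FBS; primary omental fibroblast/mesothelial co-culture 48 h pre-grown; 2 h RT + 16 h 37 C; PBS wash, 4% PFA; GFP count 488/509 nm.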

Activity change, negative = inhibition, inactive:
Cc1ccc(-n2c(=O)c3cccnc3n2CC(=O)NCc2ccc(F)cc2)cc1C 26.1%, Clc1ccc(-c2nc3ccccn3c2Nc2ccc3c(c2)OCCO3)s1 -25.3%, COc1cc(NC(=O)c2cc(-c3cccc(Cl)c3)on2)c(OC)cc1Cl -5.37%, CCOCCc1nnc(NC(=O)C(=O)c2cc(C)n(-c3cccc(Cl)c3)c2C)s1 -6.89%, Cc1ccc2nc(NC(=O)CSc3nccn3Cc3ccccc3)sc2c1 -13.7%, COc1ccccc1NC(=O)c1nc(SCc2ccc(F)cc2)ncc1Cl -6.18%, CCOC(=O)c1cnc2ccccc2c1Nc1ccc(N2CCOCC2)cc1 -11.2%, Cc1cccc(Cn2c(=O)n(-c3ccc(Cl)c(Cl)c3)c(=O)c3c(C)c(C)sc32)c1 1.34%, Cc1ccccc1CSc1cn(CC(=O)N2CCCC2)c2ccccc12 -3.25%, CCN(Cc1ccccc1)C(=O)Cn1c(=O)oc2cc(S(=O)(=O)N3CCCCCC3)ccc21 9.52%, Cc1ccc(C)c(N2CCN(C(c3ccc(F)cc3)c3nnc(-c4ccccc4)o3)CC2)c1 (stereo unspecified) -1.59%, COc1ccc(OC)c(NC(=O)c2sc3nc4c(cc3c2N)CCCCCC4)c1 6.62%, COc1ccc(NC(=O)c2sc3nc(C)c(C(=O)Nc4ccc(C)cc4C)c(-c4cccs4)c3c2N)cc1 -13.2%, CCOc1ccc(NC(=O)C(=O)NCCc2csc(-c3ccc(C)cc3)n2)cc1 -9.94%, Cc1noc2ncnc(NCc3ccccc3Cl)c12 -5.12%, CCC(=O)N1CCc2cc(S(=O)(=O)NCCC(=O)Nc3ccc(OC)c(OC)c3)ccc21 -9.03%, CCOc1ccc(-c2cc(C(=O)N3CCN(c4ccc(C)cc4)C(C)C3)c3ccccc3n2)cc1 (stereo unspecified) 4.05%, Cc1cnc2c(c1SCC(=O)NCc1ccc(F)cc1)c(=O)n(C)c(=O)n2C 5.5%, COc1ccc(NC(=O)CSc2nnc3c(C)cc4ccccc4n23)cc1 -0.617%, COc1cc(-c2nnn(CC(=O)NCc3ccccc3)n2)cc(OC)c1OC 4.94%, Cn1cc(S(=O)(=O)c2ccc(Cl)cc2)c(=O)c2cc(F)c(N3CCOCC3)cc21 -5.31%, COc1ccc(-c2cc3nc(C)c(CCC(=O)N4CCN(c5cc(C)ccc5C)CC4)c(C)n3n2)c(OC)c1 9.62%, COc1cc(C(=O)NCCS(=O)(=O)N2CCN(c3ccccc3)CC2)cc(OC)c1OC -5.47%, CC(=O)Nc1ccc(NS(=O)(=O)c2cc3c4c(c2)CC(=O)N4CCC3)cc1 4.84%, CCCCn1nc(NC(=O)c2cccc(Cl)c2)c2cc3ccc(C)cc3nc21 0.0792%, CC(C)(C)c1ccc(OCC(=O)NC(Cc2c[nH]c3ccccc23)C(=O)O)cc1 (stereo unspecified) 7.78%, COc1cccc(CNC(=O)CCCn2c(=O)c3cccn3c3cccnc32)c1OC 8.05%, CN(C(=O)CSc1nc2ccc(NC(=O)COc3ccccc3Cl)cc2s1)c1ccccc1 2.23%, Cc1ccc(Nc2c(-c3ccccc3O)nc3cc(C)ccn23)cc1 -2%, COc1ccc(N2CCN(S(=O)(=O)CCNC(=O)c3ccc(OC(C)C)cc3)CC2)cc1 -13.8%, COc1ccccc1/C=C/c1nc(C#N)c(N2CCN(c3ccccc3)CC2)o1 4.92%, CCOc1ccc(NC(=O)CN2CCN(CC(=O)Nc3ccc(OC)cc3)CC2)cc1 8.98%, Cc1c(-c2ccc(Cl)cc2)c(=O)oc2c(CN3CCOCC3)c(O)ccc12 17.2%, O=C(NCCc1ccccc1)c1cc2sccc2n1Cc1ccc(F)cc1 -3.08%, COC(=O)c1c(SCC(=O)Nc2cc(F)ccc2F)[nH]c2ccc(C)cc2c1=O 98.4%, COc1ccc(-c2cc(C(F)(F)F)nc(NCCc3ccccc3)n2)cc1 -6.15%, COC(=O)c1cccc(CN2C(=O)SC(Nc3ccc(Br)cc3)C2=O)c1 (stereo unspecified) 2.31%, Cc1ccc(NC(=O)C2CCCN(S(=O)(=O)c3ccc(F)cc3)C2)cc1 (stereo unspecified) 5.76%, Cc1cc(C)cc(NC(=O)Nc2cccs2)c1 -12.8%, CCOC(=O)CN1C(C(=O)c2ccccc2)=C(OC(=O)c2ccccc2)c2ccccc2S1(=O)=O -4.39%, COC(=O)C1CCN(C(c2ccccc2Cl)c2sc3nc(-c4ccco4)nn3c2O)CC1 (stereo unspecified) 2.78%, CCCCOc1ccc(C(=O)Nc2onc3c2CCCC3)cc1 0.792%, CCOC(=O)c1cccc(NC(=O)c2ccc3snnc3c2)c1 -13.5%, COc1ccccc1N1CCN(C(=O)C2CCCN(S(=O)(=O)c3ccc4c(c3)oc(=O)n4C)C2)CC1 (stereo unspecified) -0.114%, Cc1ccc(C)c(NC(=O)Cn2cnc3nc4c(cc3c2=O)CCCC4)c1 5.42%, Cc1nc2ccn(Cc3cccnc3)c(=O)c2cc1C(=O)N1CCN(c2ccccc2)CC1 -3.63%, COc1ccccc1C(=O)Nc1nc(-c2ccc(Br)cc2)ns1 13.1%, Cc1ccc(Nc2nc(N)nc(N)c2S(=O)(=O)c2ccccc2)cc1 -0.728%, COC(=O)c1sccc1S(=O)(=O)N(CC(=O)NCc1ccccc1)c1ccc(C)cc1 -1.36%, CCc1ccc(-n2c(N3CCN(c4cccc(C)c4C)CC3)nc3ccccc3c2=O)cc1 2.34%, COCCNC(=O)CSc1nnc(NC(=O)Nc2ccc(C)cc2)s1 -2.46%, O=C(Cn1c(=O)n(-c2ccccc2)c(=O)c2c3c(sc21)CCCC3)Nc1ccccc1 -2.15%, O=C(NCc1ccc2c(c1)CCN2C(=O)c1ccc(Cl)cc1)c1ccco1 -4.3%, CC(=O)N1CCc2c(sc3c2c(=O)n(-c2cccc(Cl)c2)c(=O)n3Cc2ccc(F)cc2Cl)C1 -5.75%, Cc1nn(C)c2c1c(C(F)(F)F)cc(=O)n2CC(=O)N1CCN(c2ccccc2F)CC1 21%, CCN(CC)c1ccc(NS(=O)(=O)c2ccc(-c3coc(C)n3)cc2)c(C)c1 13.5%, Cc1ccc(Oc2nc3ccccn3c(=O)c2/C=C(\C#N)c2nc3ccccc3s2)c(C)c1 -0.347%, Cc1cc(C)c2c(=O)c3c(oc2c1)C(=O)N(Cc1ccco1)C3c1ccc(F)cc1 (stereo unspecified) 2.39%, CCOc1ccc(-c2cc(C(=O)NCCc3ccccc3)c3c(-c4ccc(C)cc4)[nH]nc3n2)cc1 -3.28%, Cc1ccc(CC(=O)Nc2c(C(=O)N3CCN(c4ccccc4)CC3)oc3ccccc23)cc1 -8.9%, Cc1cc(N2CCC(C(=O)Nc3ccc(Cl)cc3)CC2)n2nc(C)c(-c3ccc(Cl)cc3)c2n1 -7.69%, Cc1ccc(Cc2c(C)nc3c(-c4ccccc4)c(C)[nH]n3c2=O)cc1 27%, O=C(CSc1nc(=O)[nH]c2c1CCC2)NCc1ccc(Cl)cc1 -9.45%, CC(C)NC(=O)CSc1nc2ccccc2c(=O)n1Cc1ccc(C(=O)NC(C)C)cc1 -7.53%, O=C(CCS(=O)(=O)c1cccc2nonc12)Nc1cccc(F)c1 -6.48%, CC(CNC(=O)c1ccc2c(c1)nc1n2CCOC1)c1ccccc1 (stereo unspecified) 0.671%, Cc1cccc(C)c1OCCn1c(C2CC(=O)N(Cc3ccc(F)cc3)C2)nc2ccccc21 (stereo unspecified) 0.373%, Cc1ccc(Cl)cc1NC(=O)Cn1cc2c(n1)CCCCC2 17.6%, CCSc1ncc(Cl)c(C(=O)Nc2ccc(S(=O)(=O)Nc3nccc(C)n3)cc2)n1 5.02%, COC(=O)c1ccc(C(=O)Nc2ccc(-c3nc4cc(NC(=O)c5ccc(C(=O)OC)cc5)ccc4o3)cc2)cc1 -0.841%, COc1ccc(CN(Cc2ccco2)c2cnc(S(C)(=O)=O)nc2C(=O)Nc2ccc(C)c(C)c2)cc1 -2.99%, Cc1noc2ncnc(N3CCN(c4ccccc4F)CC3)c12 -4.42%, O=C(O)c1cccc(-c2noc(-c3ccccc3F)n2)c1 8.63%, O=C(CCC1N=C2c3ccccc3N=C(SCc3ccccc3Cl)N2C1=O)N1CCN(c2ccccc2)CC1 (stereo unspecified) -4.04%, Cc1cccc(OCCSc2nc3ccc(NC(=O)COc4ccccc4F)cc3s2)c1 -7.3%, Cc1cc(Cl)ccc1NC(=O)CCn1nc(C)c2c(C)n(-c3ccccc3)nc2c1=O 0.806%, COc1ccc(Cn2ccc3nc(C)c(C(=O)NCc4ccc(C)cc4)cc3c2=O)cc1 -2.13%, CC1(C)CC(=O)c2cc(-c3nc(-c4ccc(Cl)cc4)cs3)c(=O)n(-c3ccc(F)cc3)c2C1 -25.3%, Cc1ccc(C)c(N2CCN(C(=O)CCn3c(=O)[nH]c4ccccc4c3=O)CC2)c1 -0.902%

outcome, inactive:
CCc1ccc(N2CCn3c2nc2c3c(=O)n(CCc3ccccc3)c(=O)n2C)cc1, Cc1cccc(N2CCN(c3ncnc4c3c(-c3ccccc3)cn4-c3ccccc3)CC2C)c1 (stereo unspecified), CNC(=O)c1c(NC(=O)c2ccc(S(=O)(=O)N3CCCC(C)C3)cc2)sc2c1CCC2 (stereo unspecified), Cc1ccc(NC(=O)CSc2nc3ccc(NC(=O)c4ccco4)cc3s2)c(C)c1, CSc1cccc(NC(=O)C(c2ccccc2)N2Cc3ccccc3C2=O)c1 (stereo unspecified), Cc1cc(-c2ccc(C)c(S(=O)(=O)N3c4ccccc4CC3C)c2)on1 (stereo unspecified), CCOC(=O)c1c(NC(=O)/C=C/c2ccc(OCC)cc2)sc2c1CCCC2, CCN(CC)c1cc(C)c2cc(NC(=O)/C=C/c3ccccc3OC(C)C)ccc2n1, CCOC(=O)c1noc2nc(C)n(CC(=O)Nc3ccc(OC)c(Cl)c3)c(=O)c12, O=C(O)CSc1nnc(-c2ccc(O)cc2)o1, CCOC(=O)CSc1nnc2n(-c3ccccc3)c(=O)c3c4c(sc3n12)COC(C(C)C)C4 (stereo unspecified), Cc1cc2c(cc3c(=O)n(CC(=O)NCc4ccccc4Br)ncn32)s1, CCc1c(C)nc2nncn2c1NCc1ccc(OC)cc1, Cc1cccc(CSc2nc3cccnc3n2Cc2ccc(C(=O)NCc3ccco3)cc2)c1, COC(=O)CC1Oc2ccc(C)cc2-n2cc(-c3ccc(F)cc3)nc21 (stereo unspecified), COC(=O)c1ccc(NC(=O)c2cccc3c2C(=O)N(C2CCCCC2)C3)cc1, COc1ccc(-c2oc3ncn4nc(-c5ccccc5Cl)nc4c3c2-c2ccc(OC)cc2)cc1
